Source: PMC4336329 (PLoS ONE, 2015)
Among all 310,000 compounds or so, about 2,200 (0.71%) showed an effect of 50% or more. Effects have a minus sign here. This is one part of the list.

Molecular target: human ether-à-go-go-related gene (hERG) potassium channel (human, UniProt Q12809)
Experiment: primary screen, population patch clamp on CHO cells stably expressing hERG

human ether-à-go-go-related gene (hERG) potassium channel, sequence (Q12809 whole entry, looked up): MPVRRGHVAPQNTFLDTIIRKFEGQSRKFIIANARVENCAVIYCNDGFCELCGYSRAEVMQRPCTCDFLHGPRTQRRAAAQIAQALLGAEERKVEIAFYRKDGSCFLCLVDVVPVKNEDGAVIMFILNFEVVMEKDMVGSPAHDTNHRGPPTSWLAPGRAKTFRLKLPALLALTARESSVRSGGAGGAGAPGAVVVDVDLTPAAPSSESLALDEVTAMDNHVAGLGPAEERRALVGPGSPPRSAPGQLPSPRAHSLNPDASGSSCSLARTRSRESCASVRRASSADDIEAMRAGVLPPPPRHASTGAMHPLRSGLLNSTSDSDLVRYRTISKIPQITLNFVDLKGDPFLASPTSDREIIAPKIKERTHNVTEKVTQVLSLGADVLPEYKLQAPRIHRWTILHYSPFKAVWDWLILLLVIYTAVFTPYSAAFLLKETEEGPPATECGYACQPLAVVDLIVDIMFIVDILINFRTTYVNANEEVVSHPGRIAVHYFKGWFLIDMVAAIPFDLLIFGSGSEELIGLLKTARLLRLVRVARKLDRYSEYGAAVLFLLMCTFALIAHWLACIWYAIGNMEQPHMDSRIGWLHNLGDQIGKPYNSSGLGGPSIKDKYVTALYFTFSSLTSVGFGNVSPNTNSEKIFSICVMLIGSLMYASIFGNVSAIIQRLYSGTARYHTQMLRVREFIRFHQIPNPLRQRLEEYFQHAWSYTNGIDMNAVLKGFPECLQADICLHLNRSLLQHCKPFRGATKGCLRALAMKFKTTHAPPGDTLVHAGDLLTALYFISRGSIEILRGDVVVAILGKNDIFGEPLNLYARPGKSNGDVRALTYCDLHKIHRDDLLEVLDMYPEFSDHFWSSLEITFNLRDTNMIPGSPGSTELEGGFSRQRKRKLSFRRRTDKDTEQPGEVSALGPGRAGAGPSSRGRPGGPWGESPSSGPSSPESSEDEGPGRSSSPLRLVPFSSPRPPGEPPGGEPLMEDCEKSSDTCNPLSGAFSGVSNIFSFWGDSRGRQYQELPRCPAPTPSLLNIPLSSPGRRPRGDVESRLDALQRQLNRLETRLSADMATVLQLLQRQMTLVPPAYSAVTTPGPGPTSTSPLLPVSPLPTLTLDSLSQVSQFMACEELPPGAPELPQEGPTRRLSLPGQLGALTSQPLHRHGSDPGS

SMILES | hERG current change (%, negative = inhibition) at 1uM
Cc1ccnc(SCC(=O)n2c3c(c4ccccc42)CC(C)CC3)n1 (centres unmarked) | 13.4%
Cc1ccc(S(=O)(=O)O)c(C)c1N1CCCC1=O | 4.44%
CC(Sc1nnc(N)s1)C(=O)Nc1ccc(N2CCOCC2)cc1 (centres unmarked) | 8.82%
C/C(=N\Nc1ccc(F)cc1)c1ccc(N2CCOCC2)c(F)c1 | 7.27%
Cc1ccc(S(=O)(=O)NC(=O)c2ccc(Br)o2)cc1 | 13.9%
CCCC(C(=O)NC(C)(C)CC)N(Cc1ccco1)C(=O)CNS(=O)(=O)c1ccccc1 (centres unmarked) | 3.45%
O=c1cccc2n1CC1CC2CN(c2ncnc3c2cnn3-c2ccc(Cl)cc2)C1 (centres unmarked) | -23.9%
NNC(=O)c1sc(-c2ccccc2)cc1N | 5.51%
CCOC(=O)CN(C)Cc1cn(C)nc1-c1ccc(Oc2ccccc2)cc1 | 6.3%
CC1CCCC(NC(=O)c2ccc(COc3ccccc3)o2)C1C (centres unmarked) | 8.21%
Cc1ccc(-n2nnc3c(=O)n(Cc4ccccc4C)cnc32)cc1 | 13.8%
COc1ccc(CN2CCN(C(=O)Cn3nc(C(=O)O)c4ccccc4c3=O)CC2)cc1F | -7.74%
COc1ccc(CN(C(=O)c2ccco2)c2ccc(Br)cc2)cc1OC | 9%
CC(Nc1nc(Nc2ccc(F)cc2)nc(SCC(N)=O)n1)c1ccccc1 (centres unmarked) | 14.3%
COCc1nnc(NC(=O)C2CC(=O)N(C3CCCC3)C2)s1 (centres unmarked) | 15%
CC(C)C(NC(=O)c1c(F)cccc1F)C(=O)N1CCN(c2ccccc2F)CC1 (centres unmarked) | 11.6%
O=C(c1cc(F)c(F)cc1Cl)N1CCOCC1 | 1.64%
O=C(/C=C/c1cc2c(cc1Br)OCO2)NCc1ccc(F)cc1 | 5.79%
O=C(CN1CCN(S(=O)(=O)c2ccc(Cl)cc2)CC1)NC1CC1 | 9.13%
NNc1ccc2nnc(C(F)(F)C(F)(F)C(F)(F)F)n2n1 | 10.7%

SMILES | hERG current change (%, negative = inhibition) at 1uM
CSc1ccc(Cn2nnc(C(=O)Nc3ccc(C)c(C)c3)c2N)cc1 | -1.56%
CSCCC(CO)NC(=O)OCc1ccccc1 (centres unmarked) | 8.46%
Cc1cc2nc(/N=C(\N)NC(=O)N3c4ccccc4Sc4ccccc43)nc(C)c2cc1C | -32.2%
N#Cc1cnn(Cc2ccccc2)c1N | 8.8%
CCCCN1C(=O)NC2NC(=O)NC21 (centres unmarked) | 3.06%
CCCCN(C(=O)c1ccco1)c1nnc(-c2cc(OC)c(OC)c(OC)c2)s1 | -1.23%
CC(=O)c1ccccc1OCC(O)CN1CCN(c2ccccn2)CC1.Cl (centres unmarked) | -9.92%
COc1ccccc1NC(=O)c1ccc(NC(=O)CSc2nnnn2C)cc1 | 9.7%
O=C(Nc1nc(-c2ccc(-c3ccccc3)cc2)cs1)c1cnccn1 | 3.61%
CCCC(=O)NCCc1cc(OC)c(OC)cc1Br | 16.1%
CCCC(C(=O)NC(C)(C)C)N(CCN1CCOCC1)C(=O)CNS(=O)(=O)c1ccccc1 (centres unmarked) | 13.8%
O=C(CSc1ccc2nnc(-c3cccnc3)n2n1)Nc1ccc(F)cc1F | -5.02%
CC(C)c1cc(Br)ccc1OCCCN1C(=O)NC(C)(C)C1=O | 5.49%
CCOC(=O)N1CCN(C(=S)NC(C)(C)C)CC1 | -0.972%
CN(C)C(=S)Nc1ccc2c(c1)OCCO2 | 9.5%
Cc1ccc(N=C2NC(=O)/C(=C\c3ccc(C)s3)S2)cc1 | 21%
O=C(O)c1cccc(NC(=S)NC(NC(=O)c2ccco2)C(Cl)(Cl)Cl)c1 (centres unmarked) | 7.5%
Cc1ccc(SCc2[nH]nc3c2C(c2ccc(C)o2)C(C#N)=C(N)O3)cc1 (centres unmarked) | 12.8%
COc1cc(OC)cc(C(=O)NCC(=O)OC2CCCCC2=O)c1 (centres unmarked) | -1.67%
C/C(=N\NC(=O)c1cccc(Br)c1)c1ccc(Br)cc1 | 15.7%

SMILES | hERG current change (%, negative = inhibition) at 1uM
O=C(NCc1ccc(F)cc1)c1cnc(Cl)c(Cl)c1 | -6.15%
COc1ccccc1N1CCN(C(=O)c2ccc(CSc3ccccc3)cc2)CC1 | 11.4%
Cc1ccc(NC(=S)NCC2CCN(C(C)c3ccccc3)C2)cc1C (centres unmarked) | 1.43%
COc1ccc(OC)c(C(c2c(C)[nH][nH]c2=O)c2c(C)[nH][nH]c2=O)c1 | 22.8%
CC(C)Cn1c(-c2ccco2)csc1=Nc1cccnc1 | 12.3%
O=C(NCc1ccco1)c1cc([N+](=O)[O-])ccc1N1CCCCC1 | -17%
CC(C)C(=O)Nc1ccc(C(=O)N/N=C/c2cc(Br)cc(Br)c2O)cc1 | 10.4%
CCOc1cc(C=C2C(=O)NC(=O)NC2=O)ccc1OCC(=O)N1CCOCC1 | 6.58%
Nc1cc(S(=O)(=O)Nc2cc(Cl)ccc2Cl)ccc1N1CCCC1 | 2.64%
O=C(COC(=O)/C=C/c1ccccc1[N+](=O)[O-])NCC1CCCO1 (centres unmarked) | 12.6%
COc1ccc(/C=C2\S/C(=N/S(=O)(=O)c3cccs3)NC2=O)cc1 | 15.9%
CC1(C)CC1C(=O)Nc1ccc([N+](=O)[O-])cc1Br (centres unmarked) | -4.48%
Cc1ccc(C2C(C(=O)c3sc(C)nc3C)=C(O)C(=O)N2CCN2CCOCC2)o1 (centres unmarked) | 5.52%
Cc1ccc(NC(=O)N/C=C/c2ccc(Cl)cc2)cc1 | 21.7%
COC(=O)C1=C(C)NC(=O)C1(NC(=O)c1cccnc1)C(F)(F)F (centres unmarked) | -6.62%
CN1CCN(NC(=O)c2cccc(Br)c2)CC1 | 10.3%
COc1cc(-c2nnc(-c3cccs3)o2)cc(OC)c1OC | 22.9%
COc1ccc(NC2=C(NC(C)=O)C(=O)c3ccccc3C2=O)cc1 | 20%
NC(=O)[C@@H]1CCCNc2c(I)cc([N+](=O)[O-])cc2C(=O)N[C@@H](CCC(=O)O)C(=O)N[C@@H](CO)C(=O)N1 | 10.5%
